# Where “and” joins values, the source holds several entries; their conditions need not be identical. Equal entries are not always repeated. In all, about 420,000 compounds went through this assay and about 50,000 (12%) were called active. Inconclusive means that the source gave no clear call. Such entries were picked first, then a sample of the others. The call rests on the fitted dose curve; in most records, active means well fitted inhibition curve with a large enough effect; inconclusive means small, poorly fitted or top-dose-only effect; inactive means flat fitted curve, though single readings scatter. A potency beside an inconclusive call is a rough fit, not a confirmed value.
# Assay: qHTS for Inhibitors of human tyrosyl-DNA phosphodiesterase 1 (TDP1): qHTS in cells in presence of CPT; further: nearly all actives have a fitted effect of over 55% in size
# Details: chicken DT40 Tdp1-/-;hTDP1 cells + 20 nM CPT, ATP luminescence, 48 h; activity change, negative = growth inhibition: at 46.2 µM (top of the series)
# How it was run: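 Cell growth measured by CellTiter-Glo luminescence after a minimum 48 h, 37 C compound exposure with 20 nM CPT in Tdp1-knockout DT40 cells stably expressing hTDP1, seeded 400/well; qHTS titration format.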
# On the % scale 0 is the no-effect control and ±100 the full control effect; potency means the concentration at half of the fitted maximal effect; tags describe the fitted curve by direction and shape.
SMILES,Potency,"activity change, negative = growth inhibition"
COc1ccc(C(=O)CCC(=O)N2CCN(c3cc(C)ccc3C)CC2)cc1,active: 16.4 µM,
COc1ccccc1CNC(=O)CN1C(=O)COc2ccc(S(=O)(=O)N3CCCCC3)cc21,"inactive and inconclusive: 18.4 µM [inhibitor, single point]",
NC(=O)c1cc(S(=O)(=O)N2CCc3ccccc3C2)cs1,"inconclusive: 16.4 µM [inhibitor, single point]",
Cn1cc(Br)c(NS(=O)(=O)c2ccc(Cl)s2)n1,,inactive: 14%
COc1ccc(S(=O)(=O)N2CN3CCN(C3)C2)cc1OC,"inconclusive: 16.4 µM [inhibitor, single point]",
CCCCNC(=O)C1(C)CCCCN1C(=O)c1cc(-c2ccccc2)cs1 (stereo unspecified),active: 13 µM,
CN1c2c(nc(N)[nH]c2=O)NCC1CNc1ccc(C(=O)NC(CCC(=O)O)C(=O)O)cc1 (stereo unspecified),inactive,
Cc1cc(C)nc(SCc2nnc(SCC#N)n2-c2cccc(Cl)c2)n1,"inconclusive: 25.9 µM [inhibitor, single point]",
Cc1ccc(Sc2ccc(CN3CCCC3)cc2[N+](=O)[O-])cc1,active: 6.51 µM,
CCNc1nc(NCC)n2c(SCC(=O)NC34CC5CC(CC(C5)C3)C4)nnc2n1,"inconclusive: 2.59 µM [inhibitor, full curve]",
CN(C)CC/C=C1\c2ccc(F)cc2Sc2cc(F)c(Cl)cc21,"inconclusive: 29.1 µM [inhibitor, single point]",
CC1CCCC(N2C(=O)NC(NC(=O)c3ccco3)(C(F)(F)F)C2=O)C1C (stereo unspecified),,inconclusive: -36.4% [inhibitor]
Cc1ccc(Cn2ncc3c(N4CCN(C5CCCC5)CC4)ncnc32)cc1,"inconclusive: 18.4 µM [inhibitor, single point]",
CCCCn1cc(S(=O)(=O)c2ccc(OC)cc2)c(=O)c2cc(F)c(N3CCCC3)cc21,active: 11.6 µM,
CCOC(=O)Cc1csc(SCC(=O)Nc2oc(C)c3c(C)n[nH]c(=O)c23)n1,,inactive: 5.37%
S=C(NCC1CCCO1)N1CCN(c2ccc(Cl)c(Cl)c2)CC1 (stereo unspecified),active: 20.6 µM,
CC(C)NC(=O)c1ccc2nc([C@@H]3O[C@H](CO)[C@H](O)[C@H](O)[C@H]3O)[nH]c2c1,"inconclusive: 29.1 µM [inhibitor, single point]",
O=C1N(CN2CCC3(CC2)OCCO3)c2ccccc2C12OCCCO2,,inactive: -29.5%
COc1cccc(C(=O)C2CCCN(C(=O)c3ccc(C#CC(C)(C)O)cc3)C2)c1 (stereo unspecified),active: 18.4 µM,
COc1ccc(OCCCN(C)Cc2ccccc2)cc1,"inconclusive: 25.9 µM [inhibitor, single point]",
COc1ccc(-c2ccc3c(c2)C2CC3CCN2C(=O)OCc2ccccc2)cc1 (stereo unspecified),active: 16.4 µM,
O=C(CN1CCN(S(=O)(=O)c2ccccc2[N+](=O)[O-])CC1)Nc1ccc(N2CCOCC2)cc1,"inconclusive: 16.4 µM [inhibitor, single point]",
S=C(NCc1ccc(Cl)cc1)Nc1ccc(Cl)cc1Cl,,inactive: -13.9%

SMILES,Potency,"activity change, negative = growth inhibition"
CCc1cccc2c(C(=O)COC(=O)[C@@H]3CC(O)CN3S(=O)(=O)c3ccccc3[N+](=O)[O-])c[nH]c12 (stereo partly specified),active: 23.1 µM,
CCOC(=O)c1ccc(Nc2nnc3nc(C)cc(C)n23)cc1,,inactive: -8.54%
O=S1(=O)CC(N2CCC(c3ccccc3)CC2)CN1C1CCCCC1 (stereo unspecified),"inconclusive: 29.1 µM [inhibitor, single point]",
Cc1ccc(NC2=C(Cl)C(=O)OC2OC(=O)c2ccco2)cc1C (stereo unspecified),"inconclusive: 29.1 µM [inhibitor, single point]",
CC(CN1CCN(C)CC1)OC(=O)c1ccc(F)cc1 (stereo unspecified),,inactive: 0.587%
CS(=O)(=O)Nc1ccc(C2=NN(C(=O)C3CCCCC3)C(c3cccs3)C2)cc1 (stereo unspecified),"inconclusive: 29.1 µM [inhibitor, single point]",
COc1ccc2[nH]cc(CCNC(=O)c3ccc4ccccc4n3)c2c1,"inconclusive: 25.9 µM [inhibitor, single point]",
Cc1cc(SCC(=O)Nc2cccc(S(=O)(=O)NC3=NCCCCC3)c2)nc2ccccc12,"inconclusive: 29.1 µM [inhibitor, single point]",
Cc1cccc[n+]1CC(=O)Nc1ccc([N+](=O)[O-])cc1,,inactive: -20.5%
CC(C)(C)c1cc(NC(=O)Nc2ccccc2)no1,"inconclusive: 14.6 µM [inhibitor, partial curve, poor fit]",
N#CCCN1CCN(S(=O)(=O)c2ccc(S(=O)(=O)N3CCOCC3)cc2)CC1,,inactive: 11%
COc1cc(NS(C)(=O)=O)ccc1Nc1c2ccccc2nc2ccccc12,active: 33.5 nM and active: 206 nM,
CC(=O)Nc1ccc(C(=O)N/N=C/c2cc(Br)cc(Br)c2O)cc1,active: 11.6 µM,
COc1ccc(C(CC(=O)c2ccc(C)cc2)Sc2ccccc2N)cc1 (stereo unspecified),active: 23.1 µM,
N#Cc1ccc(OS(=O)(=O)c2ccc(-c3ccon3)s2)cc1,active: 11.6 µM,
Fc1cccc(COc2ccccc2C(=S)N2CCCC2)c1,"inconclusive: 25.9 µM [inhibitor, single point]",
O=C1C=C(c2cccc3c2oc2ccccc23)CCC1,"inconclusive: 29.1 µM [inhibitor, single point]",
S=c1[nH]nc(-c2cc(-c3ccccc3)n[nH]2)n1/N=C/c1c2ccccc2cc2ccccc12,"inconclusive: 23.1 µM [inhibitor, single point]",
CC1(Cc2ccccc2C#N)C(=O)Nc2cc(-c3ccccc3Cl)ccc21 (stereo unspecified),active: 23.1 µM,
Cc1cccc(NC(=O)N2CCC(CN3CCc4ccccc4C3)CC2)c1C,"inconclusive: 20.6 µM [inhibitor, single point]",
Cc1nn(C(=O)c2ccco2)c(C)c1Sc1ccc([N+](=O)[O-])cc1,"inconclusive: 14.6 µM [inhibitor, single point]",
Brc1ccc2nc(-c3ccco3)c(CC3CCCCC3)n2c1,"inconclusive: 29.1 µM [inhibitor, single point]",
CCC(=O)c1ccc(OCC(=O)OCC(=O)Nc2cccc(S(=O)(=O)N3CCOCC3)c2)cc1,,inactive: 0.476%

# Source: PubChem BioAssay AID686979 (National Center for Advancing Translational Sciences (NCATS), 2013)
